According to PubChem BioAssay AID1347165 (National Center for Advancing Translational Sciences (NCATS), 2019):
In all, about 220,000 compounds went through this assay and about 5,700 (2.6%) were called active. The inconclusive results got no clear call from the source; some entries with a clear call stand among them for comparison. The call rests on the fitted dose curve; in most records, active means well fitted inhibition curve with a large enough effect; inconclusive means small, poorly fitted or top-dose-only effect; inactive means no such curve, though single readings can be large or run the other way. A potency beside an inconclusive call is a rough fit, not a confirmed value.

target: Lysine-specific demethylase 5B (Homo sapiens) (UniProt Q9UGL1); assay: Primary screen for KDM5B Histone Demethylases FDH-coupled qHTS; conditions: FDH-coupled NADH fluorescence (FDH is formaldehyde dehydrogenase); activity change, negative = inhibition: at 57.7 µM (top of the series) unless noted; further: nearly all actives have a fitted effect of over 70% in size; on activity change, negative = inhibition: 0% is about no effect
Procedure, shortened: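 KDM5BΔAP (200 nM final) in 50 mM HEPES pH 7.5, 0.01% Tween-20 was preincubated 10 min at RT with compound over a concentration range. Substrate mix (H3K4me3 12.5 µM, α-KG 25 µM, Fe²⁺, ascorbate, NAD⁺, FDH) was added, and NADH fluorescence change over 30 min gave dose-response curves.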
Potency means the concentration at half of the fitted maximal effect; tags describe the fitted curve by direction and shape.

Chain of UniProt Q9UGL1 (Q9UGL1 whole entry, looked up): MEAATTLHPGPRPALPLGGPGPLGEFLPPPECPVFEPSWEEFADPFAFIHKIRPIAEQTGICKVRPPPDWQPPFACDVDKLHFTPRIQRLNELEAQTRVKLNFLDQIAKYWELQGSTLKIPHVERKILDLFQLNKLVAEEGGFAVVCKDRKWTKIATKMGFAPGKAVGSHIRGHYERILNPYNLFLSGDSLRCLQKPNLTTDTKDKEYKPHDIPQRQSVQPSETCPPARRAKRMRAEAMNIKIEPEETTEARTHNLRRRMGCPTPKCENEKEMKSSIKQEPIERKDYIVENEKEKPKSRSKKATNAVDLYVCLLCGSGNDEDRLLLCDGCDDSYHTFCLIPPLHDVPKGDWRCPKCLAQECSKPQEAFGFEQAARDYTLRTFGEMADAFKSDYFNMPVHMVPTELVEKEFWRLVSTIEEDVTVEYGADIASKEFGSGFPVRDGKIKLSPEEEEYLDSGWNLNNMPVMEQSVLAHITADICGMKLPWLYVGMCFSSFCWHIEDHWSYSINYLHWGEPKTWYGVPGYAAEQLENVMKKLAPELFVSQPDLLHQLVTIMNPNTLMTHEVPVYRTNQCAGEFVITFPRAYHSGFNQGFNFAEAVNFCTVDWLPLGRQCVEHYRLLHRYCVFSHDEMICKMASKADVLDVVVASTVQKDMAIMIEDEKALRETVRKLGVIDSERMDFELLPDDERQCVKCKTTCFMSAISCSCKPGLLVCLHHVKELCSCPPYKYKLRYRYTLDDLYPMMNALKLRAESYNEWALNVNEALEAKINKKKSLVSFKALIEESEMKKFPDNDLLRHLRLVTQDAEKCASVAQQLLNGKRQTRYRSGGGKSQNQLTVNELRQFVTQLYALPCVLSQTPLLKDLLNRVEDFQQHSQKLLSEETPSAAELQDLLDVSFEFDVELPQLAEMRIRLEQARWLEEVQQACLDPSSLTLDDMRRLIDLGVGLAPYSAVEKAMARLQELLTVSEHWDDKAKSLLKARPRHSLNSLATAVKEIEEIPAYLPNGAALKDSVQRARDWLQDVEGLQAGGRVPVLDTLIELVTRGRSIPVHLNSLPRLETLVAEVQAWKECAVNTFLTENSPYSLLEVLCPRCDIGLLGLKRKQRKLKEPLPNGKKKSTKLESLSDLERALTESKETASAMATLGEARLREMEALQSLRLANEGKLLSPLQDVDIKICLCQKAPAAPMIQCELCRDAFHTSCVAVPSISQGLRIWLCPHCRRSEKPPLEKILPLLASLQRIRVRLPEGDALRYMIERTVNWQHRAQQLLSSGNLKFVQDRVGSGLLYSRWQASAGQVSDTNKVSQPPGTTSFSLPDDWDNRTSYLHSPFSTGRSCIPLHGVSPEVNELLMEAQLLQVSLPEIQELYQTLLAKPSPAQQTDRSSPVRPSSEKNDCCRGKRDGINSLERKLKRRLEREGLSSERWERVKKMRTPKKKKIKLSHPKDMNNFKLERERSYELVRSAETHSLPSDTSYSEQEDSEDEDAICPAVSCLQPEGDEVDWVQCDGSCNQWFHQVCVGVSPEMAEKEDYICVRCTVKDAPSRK

SMILES | Potency | activity change, negative = inhibition
Cc1cccc(N(C)C(CNS(=O)(=O)c2ccccc2)c2ccccc2)c1 (stereo not drawn) | inconclusive: 25.1 µM [inhibitor, partial curve, poor fit] | –
N#Cc1cccc(NC(=O)Cn2nc(Cc3ccncc3)c3ccccc3c2=O)c1 | – | inconclusive: -31.7% [inhibitor]
COc1ccccc1C1=NN(C(=O)c2cccc(F)c2)C(c2ccc3nccnc3c2)C1 (stereo not drawn) | inactive | –
CCC(CO)NC(=O)Nc1sc(C)c(C)c1C#N (stereo not drawn) | inactive | –
CCc1nc2sc(-c3ccncc3)c(N)c2cc1C | inconclusive: 2 µM [inhibitor, full curve, poor fit] | –
COc1ccc(-c2cc(N3CCC(NC(=O)c4ccc5c(c4)OCO5)C3)n[nH]2)cc1 (stereo not drawn) | inconclusive: 12.6 µM [inhibitor, partial curve] | –
O=C(CSCc1ccc(F)cc1)N1CCc2c([nH]c3ccccc23)C1c1ccc(F)cc1 (stereo not drawn) | inconclusive: 25.1 µM [inhibitor, single point] | –
CN(C)c1ccc(-c2nnc([C@H]3CCN(Cc4ccco4)C3)o2)cc1 | inconclusive: 28.2 µM [inhibitor, single point] | –
CCCCN(C)C(=O)Cn1c(=O)c(S(=O)(=O)c2ccccc2)cc2ccccc21 | inconclusive: 22.4 µM [inhibitor, partial curve, poor fit] | –
CCCCc1c(C)nn(-c2nc(CC(=O)Nc3cccc(C(C)=O)c3)cs2)c1C | inactive | –
COCC(=O)n1nc(NCc2ccccc2Cl)nc1NCc1ccccc1Cl | inconclusive: 39.8 µM [inhibitor, single point] | –
COCCCNC(=O)N1CC[C@H]2C(=O)NCCCCCCN(Cc3ccncc3)[C@@H]2C1 | inconclusive: 39.8 µM [inhibitor, partial curve, poor fit] | –
CC(C)C[C@@H]1N[C@H](C(=O)NCCOc2ccccc2)Cc2cn(C)c3cccc1c23 | inconclusive: 50.1 µM [inhibitor, single point] | –
Cc1ccc2c(=O)cc(C(=O)N3CCN(c4cccc(Cl)c4)CC3)oc2c1C | inactive | –
COc1ccc(-c2cc3c(=O)n(CC(=O)Nc4ccc(Br)c(C)c4)ccn3n2)cc1OC | inconclusive: 1.41 µM [inhibitor, full curve, poor fit] | –
O=C(Nc1oc2ccc(Cl)cc2c(=O)c1-c1ccccc1)c1cccc([N+](=O)[O-])c1 | inactive | –
CC(C)=CCC/C(C)=C/CNCC(O)CN1CCOCC1 (stereo not drawn) | inconclusive: 11.2 µM [inhibitor, partial curve, poor fit] | –
O=C(O)c1cc(-c2ccccn2)nc2ccccc12 | inactive | –
